Measurements as given in the supplement of paper PMC4166925.
± gives the standard deviation of the averaged measurements. Over roughly 33,000 sequences, “E-score (dimensionless, -0.5 to 0.5)” has its median near -0.046; the highest 2% begin near 0.36. The list shows a part of the results.

tested on: T1, SpTbr T-box DNA-binding domain (GST fusion); experiment: PBM E-score of 8-mer (E-score (dimensionless, -0.5 to 0.5)); Tbr is Tbrain of the sea star Patiria miniata (Pm) or the sea urchin Strongylocentrotus purpuratus (Sp); higher = stronger binding preference; most listed sequences are background and not binding sites; conditions: the construct has about 5 more residues each side
T1 sequence: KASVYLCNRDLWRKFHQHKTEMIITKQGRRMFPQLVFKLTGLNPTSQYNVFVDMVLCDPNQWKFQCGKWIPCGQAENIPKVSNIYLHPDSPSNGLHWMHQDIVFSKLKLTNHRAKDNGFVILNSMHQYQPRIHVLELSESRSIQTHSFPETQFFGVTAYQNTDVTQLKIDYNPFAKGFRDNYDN
Method in brief: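 Universal Agilent oligonucleotide arrays, made double-stranded by primer extension, were incubated with 200 nM GST-fused Tbr T-box DNA-binding domain in PBS (pH 7.5). The protein was expressed in BL21 E. coli at 20 °C and purified by glutathione affinity chromatography. After scanning and quantification, the Universal PBM Analysis Suite assigned an enrichment E-score to each ungapped 8-mer, averaged over duplicate arrays.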

Row | Sequence | PBM E-score of 8-mer
1 | AAATGGCT | -0.1719 ± 0.00018
2 | ATTCAATG | -0.228 ± 0.079
3 | AAGGTTAC | -0.189 ± 0.047
4 | ATCGTCTC | -0.134 ± 0.063
5 | ACTACTAC | -0.0581 ± 0.073
6 | TGCATGCA | -0.274 ± 0.17
7 | AGCTCGTA | -0.0781 ± 0.067
8 | CCAGCCAA | 0.0172 ± 0.056
9 | AGCTCACT | -0.118 ± 0.0042
10 | AGTTCGTG | 0.113 ± 0.0049
11 | CGTTGCTA | 0.115 ± 0.018
12 | CTTAACGA | 0.0844 ± 0.03
13 | CGTGTTGA | 0.3014 ± 0.0019
14 | AGCTATCG | 0.068 ± 0.035
15 | CGCGGCAA | 0.188 ± 0.07
16 | GTACTTGA | 0.0232 ± 0.044
17 | CCTCGTAG | -0.0741 ± 0.019
18 | ACTACATG | -0.132 ± 0.059
19 | ATTTCATA | -0.115 ± 0.043
20 | GTCAGGCA | -0.0329 ± 0.013
21 | ACAAAGAG | 0.106 ± 0.056
22 | CAGTCGGC | -0.0473 ± 0.027
23 | CGGATACG | -0.144 ± 0.05
24 | ATCTACGG | -0.311 ± 0.013
25 | CAGTGATG | -0.0355 ± 0.029

Row | Sequence | PBM E-score of 8-mer
26 | AAAAAATC | 0.0781 ± 0.012
27 | GGGGGGAC | -0.343 ± 0.021
28 | CCGCTGAG | -0.122 ± 0.0067
29 | ACTTGGAC | -0.1 ± 0.016
30 | ACCTTCTC | 0.0327 ± 0.019
31 | ACCTGCCG | 0.201 ± 0.033
32 | AGACATAG | -0.184 ± 0.0073
33 | TCAATGAA | -0.0588 ± 0.01
34 | ATTGCGCC | 0.122 ± 0.039
35 | AGCGGCTA | 0.0595 ± 0.043
36 | AGAACACA | 0.133 ± 0.0034
37 | AGGTTAGC | 0.0718 ± 0.021
38 | CTATGTGA | 0.204 ± 0.051
39 | CGAACATA | -0.0411 ± 0.028
40 | CAGTCAAG | -0.00898 ± 0.0034
41 | GGATCCCA | -0.177 ± 0.0037
42 | GCACCTAC | 0.352 ± 0.025
43 | TAGACCAA | -0.0737 ± 0.039
44 | AGGAGTAC | -0.0172 ± 0.035
45 | AATTTTAT | -0.14 ± 0.1
46 | CACCATTC | 0.278 ± 0.027
47 | ACCAATGA | -0.0571 ± 0.11
48 | ATAGTTGG | -0.0867 ± 0.072
49 | AGTCCGAA | -0.0718 ± 0.043
50 | CCCAAGGG | 0.0395 ± 0.0075

Row | Sequence | PBM E-score of 8-mer
51 | ACCGGGAC | -0.196 ± 0.011
52 | GTGACGAA | 0.338 ± 0.0048
53 | AATAAGAG | -0.0389 ± 0.007
54 | TGCGTAAA | 0.0514 ± 0.017
55 | TATGCTCA | 0.0361 ± 0.011
56 | ATGTCCAA | -0.344 ± 0.092
57 | CCTTGCAA | -0.019 ± 0.12
58 | GCTGTGAA | 0.4045 ± 0.0013
59 | ATTCAAAC | -0.113 ± 0.037
60 | ACGGGAGA | -0.238 ± 0.076
61 | ACAGGTTA | 0.257 ± 0.043
62 | CCCAACCA | -0.241 ± 0.01
63 | AGTAGTCG | -0.101 ± 0.0026
64 | GTTCACCA | 0.0816 ± 0.087
65 | AATTCATC | -0.1181 ± 0.00098
66 | AGCCCCAG | -0.122 ± 0.02
67 | AATGAGCA | -0.121 ± 0.033
68 | GCGAAGAC | 0.248 ± 0.045
69 | CGTTCTTC | -0.0645 ± 0.052
70 | GAAAACCC | -0.145 ± 0.051
71 | CGGGCATC | -0.211 ± 0.035
72 | GATAATAA | 0.189 ± 0.022
73 | CGGAAGTA | -0.132 ± 0.06
74 | CCCCACCG | -0.0101 ± 0.049
75 | GATATTGC | 0.0365 ± 0.028

Row | Sequence | PBM E-score of 8-mer
76 | GCCGAAGC | -0.173 ± 0.042
77 | AGGTGCCG | 0.421 ± 0.0055
78 | CCGTAGAG | -0.121 ± 0.054
79 | CGCTAAAC | 0.187 ± 0.1
80 | CAGTAAGC | -0.066 ± 0.02
81 | ATGCCCAG | -0.115 ± 0.06
82 | CCTTATTA | -0.0243 ± 0.021
83 | AAGGCATT | -0.129 ± 0.038
84 | AAAGGTGT | 0.469 ± 0.0063
85 | CAGGACTC | -0.29 ± 0.027
86 | CCCCAGAG | -0.111 ± 0.021
87 | ACCCACTC | -0.0674 ± 0.057
88 | AATTGACT | 0.00549 ± 0.0029
89 | ATCGGCCA | -0.177 ± 0.059
90 | ACCAGCCA | -0.0622 ± 0.049
91 | CACGTACC | 0.122 ± 0.031
92 | GACGACGC | 0.0598 ± 0.1
93 | CGTGTCAC | 0.362 ± 0.034
94 | ATACGTCA | -0.0814 ± 0.086
95 | AGCGGTCG | -0.0441 ± 0.11
96 | AAACTTGC | 0.102 ± 0.0067
97 | ATGTTCTA | -0.201 ± 0.013
98 | ACCTCCCA | 0.177 ± 0.064
99 | GACTGACC | -0.206 ± 0.022
100 | ACCCACAA | -0.0411 ± 0.0025

Row | Sequence | PBM E-score of 8-mer
101 | AGAGCAGC | -0.039 ± 0.051
102 | TCCATTCA | -0.0918 ± 0.027
103 | CAACTCGG | -0.0571 ± 0.15
104 | GACCAATA | -0.123 ± 0.0068
105 | AGTGCCAT | 0.128 ± 0.061
106 | GCACTAGC | 0.017 ± 0.027
107 | CCGCCCTC | -0.000765 ± 0.13
108 | GGCTGCTA | 0.0934 ± 0.049
109 | CCGTCGGA | -0.253 ± 0.025
110 | CAAGTTTC | 0.0674 ± 0.016
111 | ACCATGCT | 0.133 ± 0.029
112 | CTAGCTGC | 0.0411 ± 0.039
113 | CGGGAGCC | -0.154 ± 0.0025
114 | CCTGTCCG | -0.0247 ± 0.049
115 | CCTGCTTC | -0.0253 ± 0.016
116 | CATATGCA | -0.0874 ± 0.034
117 | GGAAGGCC | -0.3562 ± 0.0021
118 | GTGCAAAC | 0.362 ± 0.016
119 | ACCCAAAG | -0.245 ± 0.012
120 | GTGTAGCA | 0.0717 ± 0.046
121 | CGTCAACA | 0.356 ± 0.0058
122 | AGCTTAGA | -0.192 ± 0.053
123 | AGGTGATA | 0.428 ± 0.015
124 | CAAGAGTG | 0.129 ± 0.018
125 | TACGAAGA | -0.147 ± 0.027

Row | Sequence | PBM E-score of 8-mer
126 | AGCTTACT | -0.144 ± 0.015
127 | AAGGCAGC | -0.0936 ± 0.075
128 | ACATATTG | 0.0587 ± 0.083
129 | CACCCGGG | 0.301 ± 0.052
130 | CCAGAAAG | -0.0587 ± 0.042
131 | CAGCAACA | 0.0872 ± 0.056
132 | ATCAATCG | 0.0277 ± 0.019
133 | AGGCACCC | -0.131 ± 0.015
134 | CCGGGCAC | -0.17 ± 0.095
135 | CGATGGTC | -0.228 ± 0.014
136 | ATTCGGAG | -0.231 ± 0.026
137 | CCTTGTAG | -0.115 ± 0.046
138 | CATAATGA | -0.059 ± 0.023
139 | GGGCCCGA | -0.311 ± 0.0069
140 | GAAGTCAC | -0.0282 ± 0.03
141 | CTCTCAAG | 0.0211 ± 0.00057
142 | ATTGTGCA | -0.0635 ± 0.021
143 | ATCGACTG | -0.112 ± 0.02
144 | TATTTACA | -0.0226 ± 0.11
145 | CTCCCCCC | -0.301 ± 0.072
146 | AGCTCTTC | -0.148 ± 0.065
147 | TCCGACAA | 0.0636 ± 0.0061
148 | CCTGCCAC | 0.24 ± 0.032
149 | CTTTTCGC | 0.253 ± 0.0066
150 | TCAAAACA | -0.0641 ± 0.14

Row | Sequence | PBM E-score of 8-mer
151 | AATTTGTC | 0.225 ± 0.026
152 | ATGCTCTA | -0.383 ± 0.028
153 | TATAAGAA | -0.0729 ± 0.012
154 | CGGGTGAG | 0.272 ± 0.026
155 | GAATGAAA | -0.11 ± 0.061
156 | CTTATAAG | -0.176 ± 0.052
157 | ACTAGATG | -0.108 ± 0.0075
158 | CGGTGTCA | 0.398 ± 0.02
159 | AACACTCC | 0.283 ± 0.039
160 | AAAGCTCC | -0.327 ± 0.0046
161 | AACGGGTG | 0.171 ± 0.071
162 | CCCCGGCG | -0.151 ± 0.1
163 | ACCCGCTG | 0.115 ± 0.016
164 | CTCCGACC | -0.19 ± 0.027
165 | CAACTCCG | -0.0205 ± 0.067
166 | AGCTAAGC | -0.0428 ± 0.0065
167 | ATCCGCAA | -0.0387 ± 0.07
168 | AACGTAGA | -0.263 ± 0.076
169 | CTCTTGCC | -0.0138 ± 0.047
170 | AAACGGGC | -0.147 ± 0.032
171 | TCACTCAA | -0.0225 ± 0.028
172 | GCTTACCC | -0.0588 ± 0.05
